# According to PubChem BioAssay AID624417 (National Center for Advancing Translational Sciences (NCATS), 2012):
# In all, about 410,000 compounds went through this assay and about 6,400 (1.6%) were called active. Inconclusive means that the source gave no clear call. Such entries were picked first, then a sample of the others. Calls follow the shape of the dose curve; as a rule, active = well fitted inhibition curve with a large enough effect; inconclusive = small, poorly fitted or top-dose-only effect; inactive = no such curve, though single readings can be large or run the other way. No potency is given beside an inconclusive call; the fits are too rough.
# Target: Glucagon-like peptide 1 receptor (Homo sapiens) (UniProt P43220)
# Test: qHTS of GLP-1 Receptor Inverse Agonists (Inhibition Mode); also: nearly all actives have a fitted effect of over 55% in size
# Conditions: HEK293 GLP-1R CRE-luciferase, luminescence, 24 h, GLP-1R form is constitutively active; activity change, negative = inhibition: at 38.3 µM (top of the series) unless noted
# Method in brief: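 Cells are plated, allowed 12 hours at 37 deg C, then treated with compounds for 24 hr before luciferase detection reagent is added and luminescence is read after 12 min at room temperature. The HEK293 line carries constitutively active GLP-1R with a cAMP-responsive reporter.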
# % is scaled to controls: 0 for no effect and ±100 for the full control effect; potency is read from the fitted curve at half-maximal effect; tags tell the direction and shape of the fitted curve.
# Chain of UniProt P43220 (P43220 whole entry, looked up): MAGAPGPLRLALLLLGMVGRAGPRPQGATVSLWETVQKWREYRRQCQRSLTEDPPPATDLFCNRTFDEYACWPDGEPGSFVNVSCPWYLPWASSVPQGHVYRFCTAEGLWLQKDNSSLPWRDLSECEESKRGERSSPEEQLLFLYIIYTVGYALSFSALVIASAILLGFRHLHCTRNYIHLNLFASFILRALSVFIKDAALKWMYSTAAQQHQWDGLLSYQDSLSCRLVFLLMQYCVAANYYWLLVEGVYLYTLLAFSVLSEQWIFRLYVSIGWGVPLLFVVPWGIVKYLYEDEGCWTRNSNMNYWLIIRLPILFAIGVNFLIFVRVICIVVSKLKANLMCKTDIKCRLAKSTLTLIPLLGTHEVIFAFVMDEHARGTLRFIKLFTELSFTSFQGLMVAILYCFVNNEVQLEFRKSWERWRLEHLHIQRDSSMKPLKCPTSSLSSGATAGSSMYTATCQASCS
SMILES,Potency,"activity change, negative = inhibition"
Cc1cc(NS(=O)(=O)c2ccc(NC(=O)C(C)Oc3cc(C)c(Cl)c(C)c3)cc2)no1 (stereo not drawn),"inconclusive [inhibitor, single point]",–
COc1cc2c(cc1OC)CN(C1CCC(C(C)(C)C)CC1)CC2 (stereo not drawn),"inconclusive [inhibitor, single point]",–
COc1cccc(C(=O)NC23CC4CC(CC(C4)C2)C3)c1,"inconclusive [inhibitor, single point]",–
CCN(CC)S(=O)(=O)c1ccc(C(=O)NCCSc2c[nH]c3ccccc23)cc1,"inconclusive [inhibitor, single point]",–
CN(CC(=O)Nc1ccc(Cl)c(C(F)(F)F)c1)C(=O)Cc1ccsc1,"inconclusive [inhibitor, single point]",–
CCOC(=O)c1[nH]c(C)c(CN(Cc2ccco2)C(=O)C(F)(F)F)c1C,"inconclusive [inhibitor, full curve]",–
Cc1ccc2cc(CCNC(=O)c3ccc(S(=O)(=O)N4CCCCC4)cc3)c(=O)[nH]c2c1,"inconclusive [inhibitor, full curve, poor fit]",–
CCN(CC)c1ccc(/C=C2\SC(N)=NC2=O)cc1,inactive,–
CCOC(=O)c1cc(N2CCCCC2)nc2ccccc12,active: 7.94 µM,–
O=C(/C=C/c1ccc(-c2ccccc2[N+](=O)[O-])o1)c1ccccc1,"inconclusive [inhibitor, single point]",–
Clc1ccc(-c2nc(NCCCN3CCOCC3)c3ccccc3n2)cc1,"inconclusive [inhibitor, partial curve, poor fit]",–
CC1CCc2nc3ncn(Cc4ccccc4F)c(=O)c3cc2C1 (stereo not drawn),inactive,–
COc1ccc(NC(=O)CN(c2ccc(C)cc2)S(=O)(=O)c2cccc3nonc23)cc1OC,inactive,–
COc1cc(NC(=O)c2ccc(-c3cccc(F)c3)o2)ccc1NC(=O)c1ccccc1Cl,"inconclusive [inhibitor, full curve, poor fit]",–
CC(C)Nc1ncnc2c1cnn2-c1ccc(Cl)cc1,"inconclusive [inhibitor, partial curve, poor fit]",–
CC1(C)CC(C)(O)N(Cc2ccccc2)C(=S)N1 (stereo not drawn),"inconclusive [inhibitor, single point]",–
COc1ccc(N2CC(NC(=O)c3ccc4c(c3)OCO4)CC2=O)cc1 (stereo not drawn),inactive,–
C=C(C)C(=O)OCC(C)C,inactive,–
Cc1ccc(NC(=S)N2CCC(c3nc4ccccc4s3)CC2)cc1C,"inconclusive [inhibitor, single point]",–
COc1ccnc2c1c(=O)n(Cc1ccc(Cl)cc1)c(=O)n2C,inactive,–
COc1ccccc1N1CCN(c2nc(-c3ccc(C)cc3)nc3ccccc23)CC1,"inconclusive [inhibitor, single point]",–
O=C(COC(=O)c1cncc(Br)c1)Nc1ccc(S(=O)(=O)N2CCOCC2)cc1,inactive,–

SMILES,Potency,"activity change, negative = inhibition"
O=C(CCl)NCCN1C(=O)S/C(=C\c2cccnc2)C1=O,"inconclusive [inhibitor, single point]",–
Cn1cc(C(=O)N2CCN(c3cccc(C(F)(F)F)c3)CC2)c2c3ccccc3n(C)c2c1=O,"inconclusive [inhibitor, partial curve, poor fit]",–
CCNC(=S)N1CCN(c2nc(CC)nc3sc4c(c23)CCCC4)CC1,"inconclusive [inhibitor, partial curve, poor fit]",–
CCN(CC)S(=O)(=O)c1ccc2oc(SCc3ccc(F)cc3)nc2c1,active: 11.2 µM,–
CCCCC(=O)NC(c1ccc(C(C)C)cc1)c1ccc2cccnc2c1O (stereo not drawn),"inconclusive [inhibitor, full curve]",–
COc1ccc(NC(=O)C(=O)NCC(c2ccco2)N2CCc3ccccc3C2)cc1OC (stereo not drawn),"inconclusive [inhibitor, partial curve, poor fit]",–
Fc1ccc(N2CCN(Cc3ccccn3)CC2)cc1,"inconclusive [inhibitor, partial curve, poor fit]",–
O=C(O)/C=C/C(=O)NC1CCC(CC2CCC(NC(=O)/C=C/C(=O)O)CC2)CC1 (stereo not drawn),"inconclusive [inhibitor, single point]",–
CC1CCCN(c2nc3ccsc3c(=O)s2)C1 (stereo not drawn),inactive,–
CCN(CC(=O)NCCc1ccc(S(N)(=O)=O)cc1)Cc1nc2cc(OC)c(OC)cc2c(=O)[nH]1,inactive,–
Cc1noc(C)c1COc1ccc(C(=O)Nc2ccccc2)cc1,inactive,–
C=CCn1c(Cc2ccccc2)nc2c(cnn2-c2ccccc2)c1=O,–,inconclusive: -71.9% [inhibitor]
COc1cc(-c2nnc(SCc3c(F)cccc3Cl)o2)cc(OC)c1OC,"inconclusive [inhibitor, single point]",–
NC(=O)c1cc(-c2ccccc2)sc1NC(=O)CN1CCCCC1,"inconclusive [inhibitor, full curve]",–
COc1ccc(/C=N/NC(=O)c2cccnc2)cc1COc1ccc(NC(C)=O)cc1,"inconclusive [inhibitor, full curve, poor fit]",–
O=c1c2c(-c3cccs3)csc2ncn1-c1ccccc1,"inconclusive [inhibitor, single point]",–
CC(C)(C)c1ccc(C(=O)Nc2ccc(F)cc2)s1,"inconclusive [inhibitor, partial curve]",–
Clc1ccc(OCc2nnc(SCc3nc4ccccc4[nH]3)n2Cc2ccco2)cc1,"inconclusive [inhibitor, single point]",–
CCn1ccnc1CN(C)Cc1cn[nH]c1-c1ccc(F)cc1F,"inconclusive [inhibitor, partial curve, poor fit]",–
Cc1cc(-c2ccc(C)c(S(=O)(=O)NCc3ccc(OC(C)C)cc3)c2)on1,"inconclusive [inhibitor, single point]",–
COc1ccc(NC(=O)CSc2ncnc3c2nnn3-c2ccc(F)cc2)c(OC)c1,"inconclusive [inhibitor, full curve, poor fit]",–
